In US9072759B2 (priority 2008, dated 2015):

Legend:
[1] = system: S. pyogenes (088-11708A)
[2] = system: S. aureus 96:11480 Ery-R (MLSb); assay: microbe, parasite or virus in culture; type: cell-based; conditions: for MIC: Staphylococcus aureus
[3] = system: S. pyogenes (117-1612A)
[4] = system: S. epidermidis (095-2777A)
[5] = system: S. aureus ATCC 25923; assay: microbe, parasite or virus in culture; type: cell-based; conditions: Staphylococcus aureus
[6] = system: E. faecalis (ATCC 29212)
[7] = system: S. aureus ATCC 25923; assay: microbe, parasite or virus in culture; type: cell-based
[8] = system: S. pneumoniae (075-241B)
[9] = system: THP-1 macrophages; conditions: human
[10] = system: S. aureus (ATCC 29213)
[11] = system: intraphagocytic L. pneumophila ATCC 33153 (THP-1 macrophages); type: cell-based; conditions: L. p.; for Cs, static concentration at 24 h: intracellular
[12] = system: H. influenzae 49247 Ery-S; assay: microbe, parasite or virus in culture; type: cell-based; conditions: Haemophilus influenzae, 49247ERYS, read-out: Minimum inhibitory concentration, H. influenzae 49247 Ery-S
[13] = system: intraphagocytic S. aureus ATCC 25923 (THP-1 macrophages); assay: microbe, parasite or virus in culture; type: cell-based
[14] = system: S. mitis (112-1885A)
[15] = system: S. pneumoniae 303 Ery-R (ermB); assay: microbe, parasite or virus in culture; type: cell-based; conditions: for MIC: Streptococcus pneumoniae
[16] = system: S. pneumoniae 163 Ery-R (MefA); assay: microbe, parasite or virus in culture; type: cell-based; conditions: for MIC: Streptococcus pneumoniae
[17] = system: intraphagocytic L. monocytogenes EGD (THP-1 macrophages); type: cell-based

CC[C@H]1OC(=O)[C@H](C)C(=O)[C@H](C)[C@@H](O[C@@H]2O[C@H](C)C[C@H](N(C)C)[C@H]2O)[C@](C)(OC)C[C@@H](C)C(=O)[C@H](C)[C@H]2N(CCCCn3cnc(-c4cccnc4)c3)C(=O)O[C@]12C [TEL, Telithromycin]
Antimicrobial activity (time kill curve) [1]: Cidal at 2X, 4X, 8X (slow killing) | MIC ([2]; read-out: MIC, S. aureus 96:11480 Ery R (MLSb)): ≤ 0.125 µg/mL | MIC ([2]; read-out: Minimum inhibitory concentration, S. aureus 96:11480 Ery-R (MLSb)): ≤ 0.125 µg/mL | Antimicrobial activity (time kill curve) [3]: Cidal at 8X only (slow killing) | Antimicrobial activity (time kill curve) [4]: Static | MIC ([5]; ATCC25923, pH 5.5): 8 µg/mL (≈ 9.85 µM) | MIC ([5]; ATCC25923, pH 7.4): 0.5 µg/mL (≈ 0.616 µM) | Antimicrobial activity (time kill curve) [6]: Static | EC50 [7]: 0.46 x MIC | Emax [7]: −1.00 log10 units | EC50 ([7]; Staphylococcus aureus, ATCC25923, 24 h): 0.12 µg/mL (≈ 0.148 µM) | Extracellular activity (24 h): Emax ([7]; pH 5.5): −1.4 ± 0.9 Δ log cfu | Extracellular activity (24 h): Static dose ([7]; pH 5.5): ~9.33 mg/L | Extracellular activity (24 h): Emax ([7]; pH 7.4): −1.0 ± 0.4 Δ log cfu | Extracellular activity (24 h): Static dose ([7]; pH 7.4): ~0.28 mg/L | Antimicrobial activity (time kill curve) [8]: Static | accumulation level within 24 h [9]: 21 fold | Antimicrobial activity (time kill curve) [10]: Cidal at 8X only | Cs, static concentration at 24 h [11]: 0.06 mg/L | Emax ([11]; at 24 h compared to the post-phagocytosis inoculum): −0.63 Δ log10 CFU | MIC [12]: 4 µg/mL (≈ 4.93 µM) | Cs [13]: ~0.27 mg/L | Cs, static concentration at 24 h [13]: 0.63 mg/L | EC50 [13]: 0.097 x MIC | Intracellular activity (24 h): Emax [13]: −0.4 ± 0.2 Δ log cfu and −0.4 ± 0.1 Δ log cfu | Intracellular activity (24 h): Static dose [13]: ~0.23 mg/L and ~0.28 mg/L | EC50 ([13]; Staphylococcus aureus, ATCC25923, THP-1, 24 h): 0.024 µg/mL (≈ 0.0296 µM) | Antimicrobial activity (time kill curve) [14]: Cidal at 2X, 4X, 8X | MIC ([15]; read-out: MIC, S. pneumoniae 303 Ery-R (ermB)): ≤ 0.125 µg/mL | MIC ([15]; read-out: Minimum inhibitory concentration, S. pneumoniae 303 Ery-R (ermB)): ≤ 0.125 µg/mL | MIC ([16]; read-out: MIC, S. pneumoniae 163 Ery-R (MefA)): ≤ 0.125 µg/mL | MIC ([16]; read-out: Minimum inhibitory concentration, S. pneumoniae 163 Ery-R (MefA)): ≤ 0.125 µg/mL

CCC1OC(=O)C(C)C(=O)C(C)C(OC2OC(C)CC(N(C)C)C2O)C(C)(OC)CC(C)C(=O)C(C)C2N(CCCCn3cc(COc4c(Cl)cccc4Cl)nn3)C(=O)OC12C (stereo not drawn) [Entry 17b]
Minimum inhibitory concentration, S. aureus 96:11480 Ery-R (MLSb) [2]: ≤ 0.125 µg/mL

CCC1OC(=O)C(C)C(=O)C(C)C(OC2OC(C)CC(N(C)C)C2O)C(C)(OC)CC(C)C(=O)C(C)C2N(CCCCn3cc(-c4ccccn4)nn3)C(=O)OC12C (stereo not drawn) [Entry 14b]
Minimum inhibitory concentration, S. pneumoniae 303 Ery-R (ermB) [15]: ≤ 0.125 µg/mL

CCC1OC(=O)C(C)C(=O)C(C)C(OC2OC(C)CC(N(C)C)C2O)C(C)(OC)CC(C)C(=O)C(C)C2N(CCCCCn3cc(-c4ccccc4)nn3)C(=O)OC12C (stereo not drawn) [Entry 11c]
Minimum inhibitory concentration, S. aureus 96:11480 Ery-R (MLSb) [2]: ≤ 0.125 µg/mL

CC[C@H]1OC(=O)[C@@](C)(F)C(=O)[C@H](C)[C@@H](OC2OC(C)CC(N(C)C)C2O)[C@@](C)(OC)C[C@@H](C)C(=O)[C@H](C)[C@H]2N(CCCCn3cc(-c4cccc(N)c4)nn3)C(=O)O[C@]12C (stereo partly drawn) [CEM-101, 11-N-4-(3-aminophenyl)-[1,2,3]triazol-1-yl]-butyl}-5-desosaminyl-3-oxo-2-fluoro-erythronolide A,-11,12-cyclic carbamate]
Cs, static concentration at 24 h [17]: 0.11 mg/L | Cs, static concentration at 24 h [11]: 0.018 mg/L | Cs, static concentration at 24 h [13]: 0.022 mg/L

CCC1OC(=O)C(C)C(=O)C(C)C(OC2OC(C)CC(N(C)C)C2O)C(C)(OC)CC(C)C(=O)C(C)C2N(CCCCn3cc(-c4cccc(N)c4)nn3)C(=O)OC12C (stereo not drawn) [Entry 16b]
Minimum inhibitory concentration, S. pneumoniae 303 Ery-R (ermB) [15]: ≤ 0.125 µg/mL

CCC1OC(=O)C(C)C(=O)C(C)C(OC2OC(C)CC(N(C)C)C2O)C(C)(OC)CC(C)C(=O)C(C)C2N(CCCCCn3cc(Cn4nnc5ccccc54)nn3)C(=O)OC12C (stereo not drawn) [Entry 18c]
Minimum inhibitory concentration, S. aureus 96:11480 Ery-R (MLSb) [2]: ≤ 0.125 µg/mL | Minimum inhibitory concentration, S. pneumoniae 163 Ery-R (MefA) ([16]; […]): ≤ 0.125 µg/mL

CCC1OC(=O)C(C)C(=O)C(C)C(OC2OC(C)CC(N(C)C)C2O)C(C)(OC)CC(C)C(=O)C(C)C2N(CCCn3cc(-c4ccccc4)nn3)C(=O)OC12C (stereo not drawn) [Entry 11a]
Minimum inhibitory concentration, S. pneumoniae 303 Ery-R (ermB) [15]: inactive

Values after ≈ are worked out from the molar mass of the structure shown. Values joined by “and” are separate entries in the source; they are usually repeats but may differ in a detail not shown here. Equal values may be shown once. Read-outs that look alike come from different tables or passages of the source.
